Source: article PMC4336329 (PLoS ONE, 2015)
The campaign covered roughly 310,000 compounds. About 14,000 (4.5%) showed an effect of 50% or more. The effect is printed as a negative number. Some of the results follow.

biological target: human ether-à-go-go-related gene (hERG) potassium channel (human, UniProt Q12809); assay: primary screen, population patch clamp on CHO cells stably expressing hERG
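Note: peak tail current of the secondary pulse compared with the same well before compound.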

Chain of human ether-à-go-go-related gene (hERG) potassium channel (Q12809 whole entry, looked up): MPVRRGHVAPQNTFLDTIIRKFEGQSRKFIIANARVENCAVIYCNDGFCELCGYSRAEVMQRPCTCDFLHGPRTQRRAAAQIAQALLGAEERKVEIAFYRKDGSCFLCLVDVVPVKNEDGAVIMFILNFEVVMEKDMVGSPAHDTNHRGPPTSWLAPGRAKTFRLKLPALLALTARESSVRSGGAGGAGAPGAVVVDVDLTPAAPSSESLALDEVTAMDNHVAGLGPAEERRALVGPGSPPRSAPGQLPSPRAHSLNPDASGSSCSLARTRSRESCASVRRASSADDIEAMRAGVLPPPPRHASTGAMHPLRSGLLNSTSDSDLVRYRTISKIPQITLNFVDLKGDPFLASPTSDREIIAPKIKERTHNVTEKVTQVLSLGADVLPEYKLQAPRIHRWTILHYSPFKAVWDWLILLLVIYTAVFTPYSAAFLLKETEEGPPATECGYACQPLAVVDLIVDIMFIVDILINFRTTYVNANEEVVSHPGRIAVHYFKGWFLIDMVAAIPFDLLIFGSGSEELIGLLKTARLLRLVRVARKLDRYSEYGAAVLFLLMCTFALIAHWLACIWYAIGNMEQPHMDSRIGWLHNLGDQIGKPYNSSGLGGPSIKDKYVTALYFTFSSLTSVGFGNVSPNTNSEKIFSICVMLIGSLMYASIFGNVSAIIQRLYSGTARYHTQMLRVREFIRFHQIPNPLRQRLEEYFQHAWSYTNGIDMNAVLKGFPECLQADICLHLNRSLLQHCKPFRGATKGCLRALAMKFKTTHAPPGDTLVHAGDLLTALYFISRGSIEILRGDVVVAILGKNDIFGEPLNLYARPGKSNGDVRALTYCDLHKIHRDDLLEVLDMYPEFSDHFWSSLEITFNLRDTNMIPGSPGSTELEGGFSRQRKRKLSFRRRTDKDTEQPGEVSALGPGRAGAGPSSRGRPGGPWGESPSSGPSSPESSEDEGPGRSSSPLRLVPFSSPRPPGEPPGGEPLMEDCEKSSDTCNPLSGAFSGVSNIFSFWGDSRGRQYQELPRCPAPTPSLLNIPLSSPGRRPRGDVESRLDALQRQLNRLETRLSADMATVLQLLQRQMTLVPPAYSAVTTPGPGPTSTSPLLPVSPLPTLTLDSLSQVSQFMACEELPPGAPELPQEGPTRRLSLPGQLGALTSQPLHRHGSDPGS

SMILES	hERG current change (%, negative = inhibition) at 10uM [%]
CC(C)c1nnc(NC(=O)C2CC(=O)N(CCc3ccc(F)cc3)C2)s1 (stereo not drawn)	-1.32
CC(=O)N1CCC(C(=O)Nc2ccc(S(=O)(=O)N3CCCCC3)cc2)CC1	-22.4
CCOc1ccc(NC(=O)NNC(=O)C2CCC(C(C)(C)C)CC2)cc1 (stereo not drawn)	12.1
CCOc1ccc(NC(=O)N2CCN(Cc3ccc4c(c3)OCO4)CC2)cc1	-35.4
Cc1ccc(NC(=O)CCS(=O)(=O)c2ccccc2)cc1S(=O)(=O)N1CCOCC1	18.4
CC(NC(=O)C1CCC(CNS(=O)(=O)c2ccccc2)CC1)c1ccc2c(c1)OCCO2 (stereo not drawn)	1.06
CCc1ccc(-n2c([O-])c(C(C)=O)c(=O)[nH]c2=O)cc1.C[NH+](C)C	-9.78
C/C(=C\C(=O)c1ccc(Br)cc1)NNC(=O)c1ccc(O)cc1	5.39
COC(=O)C1=C(C)N(c2ccc(OC)cc2)C(=O)/C1=C\c1cccs1	-3.08
COc1ccc(C(=O)N(C)C(C)c2ccon2)cc1OC1CCN(C(C)C)CC1 (stereo not drawn)	7.06
COCCCN1C(=O)c2ccc(C(=O)OCC(=O)N3CCN(c4ccccc4)CC3)cc2C1=O	-38.2
O=C(Cc1cccs1)Nc1ccon1	18.7
O=C(CSc1nnc(CNC(=O)C23CC4CC(CC(C4)C2)C3)n1-c1ccccc1)Nc1ccc(F)cc1	3.47
COc1ccc(S(=O)(=O)NC2CCN(Cc3ccccc3)CC2)cc1NC(C)=O	-24.6
S=C(Nc1ccc(Br)cc1Cl)N1CCC2(CC1)OCCO2	8.18
Cc1cccc(CN2CCc3c([nH]c4ccccc34)C2C(C)(C)C)n1 (stereo not drawn)	3.57
CS(=O)(=O)N(CCC#N)Cc1ccco1	23.2
CC(=O)NCCn1c(C)cc2ccccc21	-55.1
NC(=O)c1ccccc1NC(=O)c1cccc(C(=O)Nc2ccccc2C(N)=O)n1	10.5
CCCC(=O)Nn1cnc2c(c1=O)C1(CCCC1)Cc1ccccc1-2	-2.16
CNC(=S)NNC(=O)CSCc1c(Cl)cccc1Cl	16.7
Fc1cccc(Cn2cc(C(=S)N3CCOCC3)c3ccccc32)c1	-2.28
COc1ccc(C(=O)NCC(=O)N2CCc3ccccc3C2)cc1	-2.27

SMILES	hERG current change (%, negative = inhibition) at 10uM [%]
O=C(COc1ccc([N+](=O)[O-])cc1)NCc1ccncc1	-67.6
O=C(CNC(=O)c1ccc(Br)o1)NNC(=O)c1ccc(Br)cc1	-35.6
O=c1c(Cc2ccc(F)cc2)c(O)ccn1CCc1cnc[nH]1	47.3
COc1ccc(C(=O)Nc2scc(-c3ccc(Cl)cc3Cl)c2C(N)=O)cc1	2.19
CCn1c(-c2ccc(C)cc2)n[nH]c1=S	14
CCN(CC)CCN(C(=O)c1cccc([N+](=O)[O-])c1)c1nc2ccc(OC)cc2s1.Cl	-39.1
COc1ccc2c(c1)cc(C(=O)N[C@@H](CCSC)C(=O)N1CCC[C@H]1C(=O)O)n2C	-2.17
Cc1ccc(NC(=S)Nc2cccc3cnccc23)cc1	15.1
O=C1CCCC/C1=C/Nc1ccc(C(=O)O)cc1	-5.05
COCCn1c(SCC(=O)N2CCCCC2)nc2ccccc2c1=O	-49.3
Oc1c(Cl)cc(CN2CCCCC2)c2cccnc12	12.9
Cc1c(C(=O)N2CCOCC2)sc(NC(=O)CCl)c1C#N	17.9
Cc1cccc(N(Cc2nnc3n2CCCCC3)C(=O)Nc2ccccc2)c1	-0.898
Cc1cc2ccccc2n1CCNC(=O)Cc1ccccc1	8.25
Cc1nnc(N/N=C/c2ccc([N+](=O)[O-])cc2)n1N	7.81
CCCc1ccc(Oc2cc(N3CCOCC3)nc(-c3ccccc3)n2)cc1	21.5
Cc1cc(-n2[nH]c(C)c(C)c2=O)nc(-c2ccccc2O)n1	8.87
COc1cccc(NC(=O)c2ccccc2-c2nc(-c3ccccc3)no2)c1	3.33
COc1ccc(CCNC(=O)C(=O)N2CCCC2)cc1OC	19.3
CCCCn1c(O)c(C(CC)=Nc2ccc(OCC)cc2)c(=O)[nH]c1=O	-19.7
CCOC(=O)c1c(CN2CCOCC2)oc2ccc(OC(C)=O)cc12	13.9
CNc1ccc(Br)cc(C(=O)/C=C/c2cc(OC)ccc2OC)c1=O	-3.83
COc1ccc(NC(=O)CSCC(=O)Nc2nnc(CC(C)C)s2)cc1	15.1

SMILES	hERG current change (%, negative = inhibition) at 10uM [%]
N#CC(C(=O)NC1CCCCC1)=C1CCCCC1	-0.798
Cl.c1ccc2c(N3CCOCC3)c3c(nc2c1)CCC3	-35.2
CCOc1ccccc1OC(=O)CN1C(=O)c2ccccc2C1=O	11.6
O=[N+]([O-])NC1=NCCN1Cc1ccc(Cl)nc1	12.7
CCOC(=O)C1(CCCc2ccccc2)CCN(C(=O)CSC)CC1	-24.1
O=C(Nc1cc(Cl)ccc1-n1cncn1)c1ccco1	-0.0346
C=C(C)C(=O)Nc1cccc(C2=NOC3(C2)C[C@@H](C(N)=O)N(C(=O)c2ccc(Cl)cc2)C3)c1 (stereo partly drawn)	-27.8
O=C(O)c1ccc(NCCC2=CCCCC2)c([N+](=O)[O-])c1	73.7
CNc1oc(-c2ccccc2Cl)nc1C#N	-6.32
O=C(N/N=C/C=C/c1ccc([N+](=O)[O-])cc1)C1COc2ccccc2O1 (stereo not drawn)	-47.1
Cc1cccc(C(=O)Nc2nnc(C3=COCCO3)o2)c1	19.2
COc1ccc(OC)c(C2SCCN2S(=O)(=O)c2cccc(C(F)(F)F)c2)c1 (stereo not drawn)	10.9
COc1ccc(CCN2C(=O)CC(N3CCN(C/C=C/c4ccccc4)CC3)C2=O)cc1OC (stereo not drawn)	-43.9
CS(=O)(=O)Nc1ccccc1C(=O)N1CCCC1	5.96
O=C(NC1CCCCC1)C(c1ccccc1)N(C(=O)Cc1ccsc1)c1ccccc1 (stereo not drawn)	3.59
COCCCN1C(=O)c2ccc(C(=O)NCCc3ccccc3)cc2C1=O	-5.36
CN1CCN(C2=C(Cl)C(=O)N(c3ccc(Cl)cc3)C2=O)CC1	-7.49
Cc1ccc(Cl)c(Nc2ccccc2C(=O)[O-])c1Cl.[Na+]	-8.67
O=C(CSc1nc2ccc([N+](=O)[O-])cc2s1)NC1CCS(=O)(=O)C1 (stereo not drawn)	-5.62
CCOC(=O)c1cc2sccc2n1Cc1ccc(C#N)cc1	-25.2
CCc1nc(Nc2ccc3c(c2)OCCO3)c2oc3ccccc3c2n1.Cl	4.26
COC(=O)C1=C(C)NC(C)=C(C(=O)OCC2CCCO2)C1c1ccc(Cl)c([N+](=O)[O-])c1 (stereo not drawn)	-10.3
O=C(Nc1nc2c(Br)cc(Br)cc2c(=O)s1)c1ccco1	7.2

SMILES	hERG current change (%, negative = inhibition) at 10uM [%]
Cc1nnc(C)c2c(C)n(N)c(C)c12	-13.4
COc1ccccc1P(=O)(c1ccccc1)c1ccccc1NC(C)=O (stereo not drawn)	14.3
CCCCOP(=O)(c1ccc(N(C)C)cc1)C(Nc1ccccc1)c1ccccc1 (stereo not drawn)	-22.7
O=C(Cc1cn(Cc2cccc(Cl)c2)c2ccccc12)N1CCCCCC1	-4.89
CCOC(=O)c1c(NC(=O)CCN2C(=O)c3ccccc3C2=O)sc(C(=O)OC(C)C)c1C	-4.35
O=[N+]([O-])c1ccc(N2CCCC2)c2ccncc12	-0.0743
CCCCn1cnc2c(c(-c3ccccc3)c(-c3ccccc3)n2Cc2ccco2)c1=N	-75.1
COc1ccc(C(C)=O)c(OC(=O)c2ccco2)c1	3.48
O=C(Cn1ncc2c3ccccc3n(Cc3ccccc3)c2c1=O)N1CCN(c2ncccn2)CC1	-7.41
O=S(c1ccc2ccccc2c1)c1cnns1 (stereo not drawn)	-7.2
O=C(O)COc1ccccc1/C=N/NC(=O)CNC(=O)c1ccco1	21
CCCNC(=O)NC(=O)COC(=O)CNS(=O)(=O)/C=C/c1ccccc1	17.3
C=CCN1C(=Nc2ccccc2)SC/C1=C\C(=O)OC	0.245
CCn1nc(C)c(Br)c1-c1nc(-c2cccc(C)c2)no1	19.1
O=C(N/N=C/c1cc(Cl)cc([N+](=O)[O-])c1O)C1CC1	0.38
CCOC(=O)c1csc(CCNC(=O)c2oc3c(Cl)cc(C)cc3c2C)n1	10
O=C(CCS(=O)(=O)c1cccc2nonc12)NCCc1ccccc1Cl	-7.38
Cc1ccc(-c2nc(C(=O)NCC3CCCO3)cc3c2[nH]c2ccccc23)cc1 (stereo not drawn)	1.66
COc1ccc2c(c1)[N+](C)(C)C(C)(C)C=C2C.[I-]	19.7
NC12CC3CC(C1)CC(CC(=O)O)(C3)C2	10.8
COc1ccc(C(=O)N/N=C/c2ccc(N(C)c3ccccc3)cc2)cc1	7.31
